The list shows a part of the results. These are noisy estimates, calculated here from bound and input reads.
molecular target: T1, Pho4 (S. cerevisiae) (UniProt P07270); assay: relative binding free energy (BET-seq); higher = weaker binding; settings: reference: library average
T1 sequence: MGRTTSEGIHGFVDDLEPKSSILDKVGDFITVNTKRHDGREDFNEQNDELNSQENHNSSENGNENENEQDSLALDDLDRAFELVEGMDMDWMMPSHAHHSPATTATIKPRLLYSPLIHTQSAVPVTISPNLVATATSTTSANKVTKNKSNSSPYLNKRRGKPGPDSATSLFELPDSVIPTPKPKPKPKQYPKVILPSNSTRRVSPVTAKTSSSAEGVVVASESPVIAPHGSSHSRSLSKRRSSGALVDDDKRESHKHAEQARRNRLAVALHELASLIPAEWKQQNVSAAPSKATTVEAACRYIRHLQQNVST

Sequence	relative binding free energy
TAACGCACGTGTTATT	-0.02 kcal/mol
GGAGGCACGTGTTGGT	-0.05 kcal/mol
TGTTGCACGTGACGGG	0.01 kcal/mol
GTTTGCACGTGGGTTG	-0.02 kcal/mol
TTCGTCACGTGTATGA	0.04 kcal/mol
ATCGGCACGTGGGGAT	-0.13 kcal/mol
AGCAGCACGTGATGTG	0 kcal/mol
TTTTTCACGTGGTGGG	0.35 kcal/mol
TTTTGCACGTGTGGTT	0.09 kcal/mol
AATGGCACGTGAAAAG	0.14 kcal/mol
TGTGCCACGTGAGTCG	0.12 kcal/mol
GGCTACACGTGGTGAG	0.13 kcal/mol
GATAGCACGTGTGTCG	0.05 kcal/mol
TGTATCACGTGGGGAC	0.05 kcal/mol
AGATTCACGTGTTTGG	0.25 kcal/mol
AGTGGCACGTGGGAGT	-0.2 kcal/mol
TCGAGCACGTGAGGGT	0.12 kcal/mol
TCGGGCACGTGACAGG	0.01 kcal/mol
TTGCACACGTGTGTAT	0.02 kcal/mol
CGGGGCACGTGACGGC	0.02 kcal/mol
ACTTGCACGTGGATGT	0.07 kcal/mol
GCTGGCACGTGGTGCA	-0.21 kcal/mol
CGGCACACGTGTGTGG	0.03 kcal/mol
TCGTACACGTGGATGG	0.05 kcal/mol
TTTATCACGTGGGGAT	0.02 kcal/mol
ATTGACACGTGTAGTC	0.15 kcal/mol

Sequence	relative binding free energy
ATGCTCACGTGTCGGT	0.22 kcal/mol
ATATTCACGTGAGTTA	0.26 kcal/mol
TCTGTCACGTGGGAAG	0.08 kcal/mol
AGAGTCACGTGTTCGG	-0.06 kcal/mol
TGTGGCACGTGCGAGG	-0.04 kcal/mol
GGGTTCACGTGTAAGC	0.48 kcal/mol
TAGCACACGTGTCGTG	0.06 kcal/mol
GAAAGCACGTGCTGGG	-0.02 kcal/mol
CTGTGCACGTGGTGTA	-0.23 kcal/mol
ATGGGCACGTGCTTAT	-0.16 kcal/mol
GTTTACACGTGGATGT	0.16 kcal/mol
AGTGACACGTGAATAG	0.31 kcal/mol
TAGTGCACGTGGATAT	0.01 kcal/mol
GAAGTCACGTGGGGCG	0 kcal/mol
CGGGTCACGTGTGATA	0.26 kcal/mol
TGTAGCACGTGATGAG	0.01 kcal/mol
ATAGCCACGTGGGCTG	-0.13 kcal/mol
ATGTTCACGTGAGAAT	0.3 kcal/mol
GGCTGCACGTGAGGTC	0.44 kcal/mol
AGTCTCACGTGTAGGC	0.29 kcal/mol
GTCAACACGTGTTGTT	0.05 kcal/mol
TGGCTCACGTGCTTGG	0.32 kcal/mol
TGTGGCACGTGGGCAA	-0.23 kcal/mol
CTTGTCACGTGTGGTC	0.19 kcal/mol
TGGTTCACGTGGCCTT	0.23 kcal/mol
ATCGTCACGTGGGGGG	-0.07 kcal/mol

Sequence	relative binding free energy
GCGCGCACGTGGGTTG	-0.19 kcal/mol
GGGACCACGTGTGCGG	0.08 kcal/mol
TTGATCACGTGGGTAC	0.04 kcal/mol
TGTGTCACGTGGGGCA	-0.05 kcal/mol
TGTTTCACGTGAGGGC	0.41 kcal/mol
TTAGGCACGTGCGTAT	-0.24 kcal/mol
TATGTCACGTGAGTGG	0.25 kcal/mol
TTTAGCACGTGTGTAG	-0.08 kcal/mol
TCAGGCACGTGGGGAA	-0.16 kcal/mol
AAATACACGTGTTTTT	0.04 kcal/mol
GCTTTCACGTGGGTTA	0.17 kcal/mol
TTTGTCACGTGTGATC	0.24 kcal/mol
GGGGTCACGTGTGCAT	0.14 kcal/mol
CAAAACACGTGGGGTG	-0.18 kcal/mol
CGAGTCACGTGGTACG	0.2 kcal/mol
GGTCGCACGTGAGTTA	0.15 kcal/mol
ATAATCACGTGTGAGT	0.18 kcal/mol
TCTTACACGTGGTGTG	-0.11 kcal/mol
TGTTGCACGTGCTATA	-0.19 kcal/mol
TTTGACACGTGTATCA	0.06 kcal/mol
TGATTCACGTGTGCAT	0.12 kcal/mol
CTAGGCACGTGTAGTA	-0.16 kcal/mol
TGTAACACGTGGGCGG	-0.15 kcal/mol
TTGAGCACGTGTAGCT	-0.12 kcal/mol
TAGTTCACGTGTTGGG	0.29 kcal/mol
AGTATCACGTGAGAGG	0.27 kcal/mol

Sequence	relative binding free energy
TTGGGCACGTGAATTG	0.3 kcal/mol
ATGGGCACGTGAGGAC	0.13 kcal/mol
GTTTTCACGTGAAAGC	0.3 kcal/mol
GAGGTCACGTGTGTGT	0.18 kcal/mol
TTCTTCACGTGATGTA	0.37 kcal/mol
TAAAGCACGTGTGGCT	0.05 kcal/mol
TTTTCCACGTGGATTT	0.17 kcal/mol
GATTTCACGTGTATTT	0.26 kcal/mol
TTCGGCACGTGCTGGT	-0.1 kcal/mol
AAGTACACGTGAGGGT	0.07 kcal/mol
TGACTCACGTGTGGAG	0.23 kcal/mol
TCATGCACGTGGGTTT	-0.16 kcal/mol
TTTAGCACGTGAGTTC	0.18 kcal/mol
GGGGTCACGTGCCTGT	-0.14 kcal/mol
AGGGACACGTGTGGTA	0.04 kcal/mol
AATTGCACGTGGGTCG	-0.13 kcal/mol
GAAGACACGTGGGGAG	-0.04 kcal/mol
TTAGACACGTGGATGA	-0.11 kcal/mol
GGTTTCACGTGCTATA	0.11 kcal/mol
GCGTACACGTGGTTTG	0.15 kcal/mol
ATTTTCACGTGAATGA	0.3 kcal/mol
TATAGCACGTGCTAGT	-0.06 kcal/mol
CGGGGCACGTGTTGTA	-0.08 kcal/mol
CGTACCACGTGAGGGG	0.15 kcal/mol
GGAGGCACGTGAAGTT	0.07 kcal/mol
ATTCACACGTGGTGTC	0.02 kcal/mol

Sequence	relative binding free energy
AATTTCACGTGAATGA	0.38 kcal/mol
TATTGCACGTGTTGGT	0.09 kcal/mol
GTTGTCACGTGGATAA	0.09 kcal/mol
TAGAGCACGTGACAGG	0.08 kcal/mol
TTGGCCACGTGTGGGA	0.01 kcal/mol
TTTAGCACGTGTCGTA	-0.02 kcal/mol
TAAACCACGTGGGTGT	-0.07 kcal/mol
TAGGACACGTGTGGTG	0.07 kcal/mol
TGGTACACGTGCAGGG	-0.12 kcal/mol
TTGTTCACGTGTATGG	0.29 kcal/mol
TGAGTCACGTGTAGGT	0.04 kcal/mol
GTTTTCACGTGCGATT	0.36 kcal/mol
GGAGACACGTGCGAGG	-0.05 kcal/mol
AGCAGCACGTGGTATT	-0.05 kcal/mol
GGAAGCACGTGTCTGT	0.03 kcal/mol
AAGGTCACGTGTATTG	0.08 kcal/mol
GAAGGCACGTGGAGTG	-0.12 kcal/mol
GGTTGCACGTGTGCGT	0.1 kcal/mol
TGGTACACGTGTGTAT	0.12 kcal/mol
CGGTCCACGTGGTAGG	-0.1 kcal/mol
TGTTTCACGTGTTCGT	0.33 kcal/mol
GTTACCACGTGTTTAG	0.06 kcal/mol
ATTTGCACGTGGTTGA	-0.07 kcal/mol
TATAGCACGTGTTGGG	-0.06 kcal/mol
TTGATCACGTGATTAG	0.23 kcal/mol
GGCGTCACGTGGGGGA	-0.1 kcal/mol

Sequence	relative binding free energy
AGGTACACGTGTTATT	-0.03 kcal/mol
TGGGGCACGTGGAAAG	0.01 kcal/mol
GCTTGCACGTGTGCGG	-0.02 kcal/mol
CATATCACGTGTTTGT	0.17 kcal/mol
GTTTACACGTGGAAGC	0.35 kcal/mol
GTGTCCACGTGGCGGT	-0.08 kcal/mol
AGTTGCACGTGGAGGT	-0.07 kcal/mol
GGTATCACGTGGAATT	0.24 kcal/mol
GGGCGCACGTGGGGCA	-0.28 kcal/mol
CTAGGCACGTGTGTTA	-0.2 kcal/mol
TGGCCCACGTGGGGTA	-0.27 kcal/mol
ATGGACACGTGGCGGT	0.07 kcal/mol
GGGGGCACGTGCTAGA	-0.26 kcal/mol
ATCCTCACGTGGGGTG	0.09 kcal/mol
GCAGGCACGTGTGTAT	0.05 kcal/mol
AGGGGCACGTGTTAGA	-0.07 kcal/mol
CGGGACACGTGGGGGT	-0.13 kcal/mol
ATGTACACGTGTGGGG	0.1 kcal/mol
GTGGTCACGTGTCTCG	0.15 kcal/mol
ATGCTCACGTGTTCTG	0.22 kcal/mol
GTGATCACGTGGATTG	0.04 kcal/mol
TCAATCACGTGGGTGG	0.11 kcal/mol
GCGTTCACGTGGGTCG	0.13 kcal/mol
GTTTACACGTGGGGCA	0.03 kcal/mol
GTTGGCACGTGTGGAA	-0.03 kcal/mol
GAATTCACGTGTTTCT	0.44 kcal/mol

Sequence	relative binding free energy
GTACTCACGTGTTTGG	0.32 kcal/mol
GTTGGCACGTGCGCAA	-0.04 kcal/mol
GGTGTCACGTGGCTTG	0.13 kcal/mol
GGGGACACGTGTTTGG	0.12 kcal/mol
CTGTACACGTGGCAGG	0.14 kcal/mol
TGCGACACGTGTTGAG	0.12 kcal/mol
AGGCTCACGTGGGGAA	0.09 kcal/mol
GTTAGCACGTGTAAGG	0.17 kcal/mol
GCGTTCACGTGTTGCG	0.33 kcal/mol
ACGTGCACGTGTTGTT	-0.06 kcal/mol
GTTGGCACGTGCCTTG	-0.02 kcal/mol
GAATTCACGTGGGAGT	0.33 kcal/mol
TTTTTCACGTGTACCT	0.27 kcal/mol
GATCACACGTGGTGGG	0.04 kcal/mol
GGTCACACGTGGGGTA	-0.01 kcal/mol
TTGTGCACGTGTGGGA	0.02 kcal/mol
GTTCGCACGTGGATTT	0.06 kcal/mol
GAAAACACGTGGGTTG	-0.17 kcal/mol
GCGCGCACGTGGGTTA	-0.08 kcal/mol
GTTGTCACGTGTAGTA	0.21 kcal/mol
TGAGGCACGTGGAAGT	-0.11 kcal/mol
TAGGTCACGTGCCGGG	0.06 kcal/mol
AGCTTCACGTGAGTTA	0.49 kcal/mol
TGTGGCACGTGTCAGT	-0.18 kcal/mol
TTATGCACGTGGAGCA	-0.02 kcal/mol
TTCATCACGTGATAGG	0.17 kcal/mol

Sequence	relative binding free energy
AGTTTCACGTGGTATG	0.31 kcal/mol
TGTGTCACGTGACTTT	0.1 kcal/mol
GCGTTCACGTGTGGAT	0.23 kcal/mol
TAAAGCACGTGGCGTG	-0.09 kcal/mol
TAGATCACGTGGATTG	0.35 kcal/mol
AAGAGCACGTGAGTTG	0.2 kcal/mol
TGTAGCACGTGCGGTT	-0.07 kcal/mol
TCAGGCACGTGTGTTG	0.02 kcal/mol
ATTTGCACGTGAGTCT	0.13 kcal/mol
TGTAGCACGTGAATGA	0.07 kcal/mol
CGTATCACGTGTTAGG	0.1 kcal/mol
GGGCTCACGTGAGTTA	0.36 kcal/mol
CTAGTCACGTGGGGGT	-0.19 kcal/mol
TTTAACACGTGTGTAG	-0.01 kcal/mol
TAGCACACGTGGTATG	-0.07 kcal/mol
GAAAGCACGTGAGGGG	0.16 kcal/mol
GACGTCACGTGGGTTT	0.06 kcal/mol
GTACTCACGTGTTAGG	0.17 kcal/mol
TGCAGCACGTGTTAGT	0.03 kcal/mol
ATGGTCACGTGGTCGC	-0.04 kcal/mol
TGCGTCACGTGCTTGG	-0.04 kcal/mol
CCTTTCACGTGTTGGG	0.25 kcal/mol
TATGACACGTGTTGTC	0.09 kcal/mol
CGTGCCACGTGAGTGG	0.03 kcal/mol
TACAGCACGTGTGTTG	-0.08 kcal/mol
CTAAGCACGTGAAGGG	0.17 kcal/mol

Sequence	relative binding free energy
GTTTACACGTGTTGCG	0.24 kcal/mol
GTTCTCACGTGGGGCG	0.05 kcal/mol
ACCTGCACGTGGTGGG	-0.2 kcal/mol
GCTAGCACGTGTAAGG	0.13 kcal/mol
ATTGGCACGTGAGGAT	0.14 kcal/mol
AGATGCACGTGTTCGT	-0.15 kcal/mol
TGTGGCACGTGGTTGA	-0.14 kcal/mol
CGGGTCACGTGGCGAT	0.15 kcal/mol
ATTTGCACGTGGCATT	-0.09 kcal/mol
GCATTCACGTGTGGAG	0.35 kcal/mol
ATTAGCACGTGTCGTA	-0.16 kcal/mol
GGCTGCACGTGAGAGG	0.34 kcal/mol
CGTGACACGTGTGGGA	-0.01 kcal/mol
TTTTTCACGTGTTCAA	0.26 kcal/mol
TGAAGCACGTGCTGGG	-0.14 kcal/mol
GTAAACACGTGTAAGT	0.14 kcal/mol
TTGGGCACGTGACTAG	-0.02 kcal/mol
AGCGTCACGTGTGAAT	0.1 kcal/mol
GAAGGCACGTGTCAGG	-0.04 kcal/mol
TAACGCACGTGAGGGG	0.18 kcal/mol
GGCGGCACGTGTTGCG	-0.12 kcal/mol
AGTTGCACGTGAGGCG	0.21 kcal/mol

— the BET-seq Pho4 binding data (Le et al. 2018)
